From the supplement of paper PMC4604168 (melanoma cell lines) come the findings set out here.

The list shows a part of the results. Single values are uncertain, as repeats are few or missing.
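Note: cell number obtained by counting DAPI-stained nuclei in high-throughput microscope images with image analysis software, screen run in 1,536-well plates.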

The assay relates to RVH-421. The experiment in a line: cell count relative to DMSO control; melanoma cells; higher = more viable cells. Particulars: library dose: low library concentration; 72 h.
Take `COc1cc2ncnc(Nc3ccc(Oc4ccccc4)cc3)c2cc1OC` + O=C(Oc1ccc([N+](=O)[O-])cc1)N1CCC(C(O)(c2ccc3c(c2)OCO3)c2ccc3c(c2)OCO3)CC1 [JZL184] (first compound 2 µM, partner dose 1 µM): the cell count worked out at 132%.
With `Nc1ccn([C@@H]2O[C@H](CO)[C@@H](O)C2(F)F)c(=O)n1` [gemcitabine] + C[As](C)SC[C@H](NC(=O)CC[C@H](N)C(=O)O)C(=O)NCC(=O)O [Darinaparsin] (first compound 0.0004 µM, partner dose 0.4 µM) the figure was 95.2%.
With `CC(C)C[C@H](NC(=O)[C@H](Cc1ccccc1)NC(=O)c1cnccn1)B(O)O` [Bortezomib] + O=C(Oc1ccc([N+](=O)[O-])cc1)N1CCC(C(O)(c2ccc3c(c2)OCO3)c2ccc3c(c2)OCO3)CC1 [JZL184] (first compound 0.001 µM, partner dose 1 µM) the figure was 52.8%; with `c1cc(-c2cnn3cc(-c4ccc(OCCN5CCCCC5)cc4)cnc23)ccn1` [Dorsomorphin] + O=C(Oc1ccc([N+](=O)[O-])cc1)N1CCC(C(O)(c2ccc3c(c2)OCO3)c2ccc3c(c2)OCO3)CC1 [JZL184] (first compound 0.4 µM, partner dose 1 µM), 96.3%.
Then `Oc1cc(-c2nc(-c3ccccc3)[nH]c2-c2ccncc2)ccc1Cl` + O=C(Oc1ccc([N+](=O)[O-])cc1)N1CCC(C(O)(c2ccc3c(c2)OCO3)c2ccc3c(c2)OCO3)CC1 [JZL184] (first compound 0.2 µM, partner dose 1 µM), with 70.4%.
